# From article PMC4336329 (PLoS ONE, 2015)
# The campaign covered roughly 310,000 compounds. About 2,200 (0.71%) showed an effect of 50% or more. The effect is printed as a negative number. This is one part of the list.
# Target: human ether-à-go-go-related gene (hERG) potassium channel (human, UniProt Q12809)
# Assay: primary screen, population patch clamp on CHO cells stably expressing hERG
# Chain of human ether-à-go-go-related gene (hERG) potassium channel (Q12809 whole entry, looked up): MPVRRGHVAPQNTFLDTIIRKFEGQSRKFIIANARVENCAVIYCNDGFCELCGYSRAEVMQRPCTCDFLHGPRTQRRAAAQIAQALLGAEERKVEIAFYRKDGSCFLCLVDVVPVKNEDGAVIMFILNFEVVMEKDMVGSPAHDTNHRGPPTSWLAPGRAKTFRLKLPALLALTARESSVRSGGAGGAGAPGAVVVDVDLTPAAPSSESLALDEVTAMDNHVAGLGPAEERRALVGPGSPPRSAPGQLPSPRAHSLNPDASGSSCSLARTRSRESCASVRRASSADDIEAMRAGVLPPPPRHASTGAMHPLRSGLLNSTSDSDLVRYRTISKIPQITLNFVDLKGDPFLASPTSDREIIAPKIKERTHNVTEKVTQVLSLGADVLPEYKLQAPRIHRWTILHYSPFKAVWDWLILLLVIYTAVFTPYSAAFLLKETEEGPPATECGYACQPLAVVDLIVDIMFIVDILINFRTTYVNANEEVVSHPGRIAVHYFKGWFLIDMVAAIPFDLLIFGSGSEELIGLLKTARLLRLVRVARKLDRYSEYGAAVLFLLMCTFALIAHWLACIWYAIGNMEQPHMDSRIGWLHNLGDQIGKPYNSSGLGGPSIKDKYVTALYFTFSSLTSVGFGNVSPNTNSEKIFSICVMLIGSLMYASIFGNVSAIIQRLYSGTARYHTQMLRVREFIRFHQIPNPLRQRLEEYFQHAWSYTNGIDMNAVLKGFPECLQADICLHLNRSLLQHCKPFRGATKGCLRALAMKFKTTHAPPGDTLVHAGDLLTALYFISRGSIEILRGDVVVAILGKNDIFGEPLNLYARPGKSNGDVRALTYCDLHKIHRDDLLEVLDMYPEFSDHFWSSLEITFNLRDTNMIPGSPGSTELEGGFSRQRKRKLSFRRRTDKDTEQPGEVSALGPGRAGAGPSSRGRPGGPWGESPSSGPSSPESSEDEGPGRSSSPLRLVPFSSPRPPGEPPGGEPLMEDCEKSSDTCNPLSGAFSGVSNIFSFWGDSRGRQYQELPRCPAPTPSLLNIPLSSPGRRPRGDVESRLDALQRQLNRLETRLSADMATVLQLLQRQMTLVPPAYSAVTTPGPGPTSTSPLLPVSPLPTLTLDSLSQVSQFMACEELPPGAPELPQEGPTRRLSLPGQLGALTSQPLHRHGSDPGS
row,SMILES,"hERG current change (%, negative = inhibition) at 1uM [%]"
1,CCC1(O)c2ccccc2-c2ncccc21 (stereo not shown),10.6
2,COc1ccccc1-c1noc(CCC(=O)NC2CCCCC2)n1,14.6
3,O=C1Nc2ccc(S(=O)(=O)N3CCCCCC3)c3cccc1c23,15.3
4,COc1cccc(-c2cc(C(=O)N3CCN(Cc4ccccc4)CC3)no2)c1,-4.98
5,Cc1ccc(N(CN2CCCC2=O)C(=O)c2ccc(C)c(C)c2)cc1,12.4
6,O=C(NCC(c1ccco1)N1CCCC1)c1ccc(S(=O)(=O)Nc2ccccc2F)cc1 (stereo not shown),4.3
7,CN(C)/C=C/C1=CC(=O)CC(C)(C)C1,17
8,CC1CCN(C(=O)CCC(=O)N2CC(C)Oc3ccccc32)CC1 (stereo not shown),-0.862
9,COc1ccccc1NS(=O)(=O)c1ccc(C)c(C(=O)NCC2CCCO2)c1 (stereo not shown),-14.5
10,Cc1ccc2nc(NC(=O)C3CCN(S(=O)(=O)c4cccs4)CC3)sc2c1,5.47
11,O=C(Nc1ccc2oc(-c3cccnc3)nc2c1)c1cccnc1,12.3
12,COCCNC(=O)C1CCC(CNS(=O)(=O)c2ccc3c(c2)CC(C)N3C(=O)C2CC2)CC1 (stereo not shown),-9.28
13,CC(=O)Oc1ccc(N(C(C)=O)S(=O)(=O)c2cc([N+](=O)[O-])ccc2C)cc1,9.39
14,CCOc1ccc(C(=O)NNC(=O)CCNC(=O)c2ccc(Br)cc2)cc1OC,6.57
15,COc1ccc(S(=O)(=O)Cc2ccc(C(=O)N3CCN(c4cc(Cl)ccc4C)CC3)o2)cc1,10.6
16,Cc1cc(C)cc(C(=O)N(C)C2CCCN(Cc3ccccc3F)C2)c1 (stereo not shown),8.81
17,CCn1c(O)c(/C=C/C=C/C=Nc2ccccc2)sc1=S,7.26
18,COc1ccc(C(=O)NCc2csc(C)n2)cc1OC1CCN(C(C)=O)CC1,12.7
19,O=C(Nc1nccs1)c1ncc(Cl)c(Cl)c1Cl,19
20,O=C(NNC(=S)Nc1ccc(F)c(Cl)c1)c1ccccc1Br,7.86
21,Cc1cc(=O)[nH]c(SCC(=O)NCCC2=CCCCC2)n1,15.4
22,COc1ccc(/C=N/NC(=O)c2ccc3c(c2)OCO3)cc1,18.5

row,SMILES,"hERG current change (%, negative = inhibition) at 1uM [%]"
1,COc1ccc(OC)c(S(=O)(=O)Nc2ccc(F)cc2)c1,4.35
2,CC1=C(C(=O)OC(C)C)C(c2ccc(F)cc2)NC(=O)N1 (stereo not shown),-2.1
3,Cc1nc2nc(SCC(=O)N3CCC4(CC3)OCCO4)nn2c(C)c1Cc1ccccc1,-0.97
4,CC(NS(=O)(=O)c1ccc2c(c1)C(=O)c1cc(S(=O)(=O)NC(C)C(=O)O)ccc1-2)C(=O)O (stereo not shown),15.3
5,O=C(Cc1cccs1)Nc1ccc(Cl)cc1,-2.94
6,COc1ccc(NC(=O)COc2ccc(Br)cc2)c(OC)c1,8.49
7,Cc1ccccc1-n1c(O)cc(=O)[nH]c1=S,1.32
8,CCOC(=O)CSCC(=O)Nc1c(C(=O)C2CC2)oc2ccccc12,-10
9,O=S(=O)(c1ccccc1)N1CCc2ccccc21,8.01
10,CC(C)(C)N(Cc1ccccc1)C(=O)c1cc2ccccc2o1,10.5
11,O=C(CSc1ccc(Cl)cc1Cl)N1CCC(c2nc3ccccc3s2)CC1,13.8
12,CCN(CC)C(=O)CSc1nnc(CNc2ccc(F)cc2)n1-c1ccccc1,18.8
13,COC(=O)c1nn(-c2ccccc2)c(-c2ccccc2)c1C(=O)c1ccccc1,3.58
14,COc1ccc(CNC(=O)c2cc(C(C)=O)c[nH]2)cc1,7.89
15,Cc1cc(Cl)ccc1N=C1N=C(N)c2ccccc21,8.17
16,Cc1onc(-c2ccccc2)c1C(=O)Nc1nnc(-c2ccncc2)s1,2.16
17,COc1cc2c(cc1NC(=O)COC(=O)CNC(=O)c1ccccc1)oc1ccccc12,11.9
18,COc1ccccc1C(=O)N/N=C(\C)CC(=O)Nc1ccc2c(c1)OCCO2,14
19,Cc1ccccc1N1CCN(S(=O)(=O)c2cccs2)CC1,6.13
20,CCOc1ccc(C(=O)NCC(=O)OCC(=O)Nc2ccccc2OC)cc1,2.32
21,O=C(COc1ccc(Cl)cc1Cl)Nc1ccc(S(=O)(=O)NC2=NCCCCC2)cc1,1.98
22,O=C(COC(=O)c1ccccc1SCC(=O)NC1CCS(=O)(=O)C1)NC1CCS(=O)(=O)C1 (stereo not shown),11.8

row,SMILES,"hERG current change (%, negative = inhibition) at 1uM [%]"
1,Cc1ccc(C(=O)COC(=O)c2ccc3c(c2)C(=O)N(c2cccc4ncccc24)C3=O)cc1,19.2
2,O=C(c1ccc(S(=O)(=O)N2CCCC2)cc1)N1CCN(c2ccccc2)CC1,6.77
3,COc1ccc([N+](=O)[O-])cc1NC(=O)CC1SC(=Nc2cccc(C)c2C)N(/N=C(\C)c2ccc(C)cc2)C1=O (stereo not shown),-0.828
4,CCN1CCc2c(C#N)c(N3CCCCC3)nc(NCc3ccccc3)c2C1,14.3
5,O=C(NCC(=O)N1CCC2(CC1)NCCc1[nH]cnc12)c1ccc(F)cc1,13.3
6,COc1ccc(C2=NN(C(C#N)c3ccc(OC)cc3)C(c3ccccc3)C2)cc1 (stereo not shown),0.598
7,COc1ccc(-c2cc(C(=O)NCC(c3ccco3)N(C)C)c3ccccc3n2)cc1OC (stereo not shown),3.53
8,COC(=O)c1ccsc1NC(=O)CN1CCN(c2ccc(F)cc2)CC1,15
9,COc1ccccc1N1CCN(C(=O)c2ccccc2N(C)S(=O)(=O)c2ccc(C)cc2)CC1,10.3
10,CS(=O)(=O)Nc1ccc(C(=O)NCC2CCCO2)cc1 (stereo not shown),8.72
11,CCOc1ccccc1NS(=O)(=O)c1ccc2oc(=O)ccc2c1,6.61
12,O=C(Nc1ccccc1)OCC1CCCO1 (stereo not shown),6.06
13,COc1ccc(Br)cc1CNC(=O)CCC(=O)n1nc(C)c2ccccc21,13.8
14,Nc1nc2c(-c3ccc(Br)cc3)nnn2c2ccccc12,14
15,O=C1NCCN(Cc2cccc(Oc3ccccc3)c2)C1CC(=O)N1CCCCO1 (stereo not shown),-3.92
16,CC(C)C(NC(=O)c1cccc(S(=O)(=O)N2CCOCC2)c1)C(=O)NCCc1ccccn1 (stereo not shown),14.3
17,COCCNc1nc2c(-c3cccc(C(F)(F)F)c3)nnn2c2ccccc12,12.6
18,CCn1c(=O)cc(OCC(=O)NCCC(C)C)c2ccccc21,2.9
19,Cc1ccc(NC(=O)C2CCN(S(=O)(=O)c3cccc4nonc34)CC2)cc1,12.5
20,COc1ccc2ccn(S(=O)(=O)c3ccccc3)c2c1,14.1
21,CCCn1c(N)c(C(=O)CN(C)CC(=O)Nc2ccccc2C(F)(F)F)c(=O)[nH]c1=O,11.8
22,COc1ccc(NCc2ccccc2[N+](=O)[O-])cc1OC,6.96

row,SMILES,"hERG current change (%, negative = inhibition) at 1uM [%]"
1,C=C(C)C1CC=C(C)/C(=N/NC(=O)COc2cccc3ccccc23)C1 (stereo not shown),3.66
2,CCN(CC)/C(=N\S(=O)(=O)c1ccc(F)cc1)c1ccccc1,7.29
3,CCN1CCc2c(OCC(=O)Nc3ccccc3)cccc2C1=O,8.27
4,CCC1Oc2ccc(C)cc2N(CC(=O)NCCCN2CCCC2)C1=O (stereo not shown),10.5
5,CCOC(=O)c1c(C)oc2cc(Br)c(OCC(N)=O)cc12,7.6
6,O=C1c2ccccc2C(=O)c2cc(NC(=O)C3CC3)ccc21,6.82
7,CCn1c(C)c(C(=O)NCCc2ccccc2)c2cc(OC)ccc21,0.777
8,COc1cccc(NC(=O)CSc2ccc3nnc(-c4ccccn4)n3n2)c1,6.48
9,Cc1ccc(OCCSCc2nc3ccccc3[nH]2)cc1,1.28
10,CC(=O)c1cccc(NC(=O)c2cc(C)nn2-c2ccccc2)c1,3.5
11,O=C(O)c1ccccc1OCc1ccccc1Br,4.41
12,COc1ccc(N2CCN(C(C)C(=O)N3CCCC3)CC2)cc1.O=C(O)C(=O)O (stereo not shown),13.2
13,O=C(O)C(=O)O.O=C(c1ccccc1)N1CCN(Cc2ccccc2)CC1,2.81
14,COc1ccc(-c2cn(Cc3ccc4c(c3)C(=O)c3ccccc3C4=O)nn2)cc1,1.17
15,COc1ccc(Cl)cc1Nc1nc(-c2cccnc2)cs1,12.8
16,COc1ccc(C(C)(C)C)cc1NC(=O)c1c(C)noc1C,-5.53
17,CC(=O)Nc1ccc(OC(=O)C(CCS(C)(=O)=O)N2C(=O)c3ccccc3C2=O)cc1 (stereo not shown),12.3
18,CCOC(=O)CC1=C(C(=O)OCC)C(c2cccs2)C(C#N)=C(N)O1 (stereo not shown),8.69
19,COc1ccc(Cl)cc1NC(=S)NCCc1ccc(S(N)(=O)=O)cc1,9.25
20,CCN(CC)C(=O)CSc1nnc(-c2ccccc2)n1-c1ccccc1,13.3
21,CN1CCN(C(=O)c2ccc(CSc3ccc(Cl)cc3)cc2)CC1,-17.1
22,CCc1ccc(C(=O)NNC(=O)OC)cc1,8.42
